From patent US20160159919A1 (Chugai, published 2016)

How the values were obtained:
[1] = molecular target: T1, cynomolgus EREG (Biacore analyte) (cynomolgus monkey, UniProt O14944 63-108 (human entry), limits assumed); assay: SPR (Biacore T100); KD for monkey EREG over KD for human EREG
T1 construct: also called cynomolgus monkey EREG; cEREG
Method: The affinity and association rate constant of an anti-EREG antibody for an antigen were measured by the single-cycle kinetics method of surface plasmon resonance assay using Biacore™-T100 (GE Healthcare Japan). HBS-EP+ (GE Healthcare Japan) was used for the running buffer, and an amine coupling kit (GE Healthcare Japan) was used to covalently bond Protein A to the CM5 chip (carboxymethyl dextran-coated chip). Each anti-EREG antibody was prepared so that approximately 350 RU will be captured by Protein A. Human EREG or cynomolgus EREG used as the analyte was prepared at 0, 0.7, 1.4, 2.8, 5.6, and 11.2 nM using HBS-EP+. […] Then, the solution was switched to HBS-EP+, and the dissociation phase was measured for 15 minutes. […] To correct for the day-to-day differences in the measurement values, FIGS. 1 to 4 and Tables 16 and 19 show ratios based on taking the value of the control sample (cH-G1/cL-k) measured on the same day as 1.

[2] = molecular target: T2, Human EREG (Biacore analyte) (human, UniProt O14944 63-108); assay: SPR (Biacore T100), antibody captured on Protein A, EREG as analyte, single-cycle kinetics
T2 construct: also called hEREG; human epiregulin
Method: (§1) The affinity and association rate constant of an anti-EREG antibody for an antigen were measured by the single-cycle kinetics method of surface plasmon resonance assay using Biacore™-T100 (GE Healthcare Japan). HBS-EP+ (GE Healthcare Japan) was used for the running buffer, and an amine coupling kit (GE Healthcare Japan) was used to covalently bond Protein A to the CM5 chip (carboxymethyl dextran-coated chip). Each anti-EREG antibody was prepared so that approximately 350 RU will be captured by Protein A. Human EREG or cynomolgus EREG used as the analyte was prepared at 0, 0.7, 1.4, 2.8, 5.6, and 11.2 nM using HBS-EP+. Measurement was carried out by first allowing Protein A to capture the antibody solution, and then at a flow rate of 30 μL/min, successively injecting each of the 0, 0.7, 1.4, 2.8, 5.6, and 11.2 nM human EREG or cynomolgus EREG solutions for three minutes to allow reaction to take place. Then, the solution was switched to HBS-EP+, and the dissociation phase was measured for 15 minutes. After completion of the dissociation phase measurement, the sensor chip was washed with 25 mM NaOH and regenerated. The measurement at zero concentration was similarly carried out by allowing Protein A to capture the antibody solution, and performing three-minute HBS-EP+ injections successively for five times to allow reaction to take place, and then switching to HBS-EP+ to measure the dissociation phase for 15 minutes. After completion of the dissociation phase measurement, the sensor chip was washed with 25 mM NaOH and regenerated. A data analysis software exclusively for Biacore, Biacore T100 Evaluation Software Version 2.0.1, was used to perform kinetic analyses to calculate the association rate constant (kₐ), dissociation rate constant (kd), and the rate constant ratio from the obtained sensorgrams. To correct for the day-to-day differences in the measurement values, FIGS. 1 to 4 and Tables 16 and 19 show ratios based on taking the value of the control sample (cH-G1/cL-k) measured on the same day as 1.

[3] = molecular target: T1, cynomolgus EREG (Biacore analyte); assay: as above
Method: as §1

T1 sequence (O14944 other isoform, or with tags, fused parts or gaps limits assumed): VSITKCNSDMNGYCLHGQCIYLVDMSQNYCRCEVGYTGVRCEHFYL

Binder	cEREG (nM)/hEREG (nM) [1] [ratio]	Kd [2] [nM]	koff [2] [s⁻¹]	kon [2] [M⁻¹ s⁻¹]	Kd [3] [nM]	koff [3] [s⁻¹]	kon [3] [M⁻¹ s⁻¹]
H205-G1d/L53-k (antibody, human IgG1, kappa) heavy: QDQLVQSGAEVKKPGASVKVSCKASGFNIKDTYIQWVRQAPGQGLEWMGRIDPLRRQTKYREKFEGRVTITADTSTNTAYMELSSLRSEDTAVYYCVRSGREFDYWGQGTLVTVSS[human IgG1 constant region cut from this listing] light: DIQMTQSPSSLSASVGDRVTITCRASQDIHKYIAWYQQKPGQAPRLLIQYTSTLQPGVPSRFSGSGSGTDYTFTISSLQPEDIATYYCLQYDNLRTFGGGTKVEIKRTVAAPSVFIFPPSDEQLKSGTASVVCLLNNFYPREAKVQWKVDNALQSGNSQESVTEQDSKDSTYSLSSTLTLSKADYEKHKVYACEVTHQGLSSPVTKSFNRGEC	5.5	0.22	0.00012	540000	1.2	0.0007	580000
H231-G1d/L53-k (antibody, human IgG1, kappa) heavy: QDQLVQSGAEVKNPGASVKVSCKASGFNIKDTYIQWVRQAPGQGLEWMGRIDPLRRQTKYREKFEGRVTITADTSTNTAYMELSSLRSEDTAVYYCVRSGREFDYWGQGTLVTVSS[human IgG1 constant region cut from this listing] light: DIQMTQSPSSLSASVGDRVTITCRASQDIHKYIAWYQQKPGQAPRLLIQYTSTLQPGVPSRFSGSGSGTDYTFTISSLQPEDIATYYCLQYDNLRTFGGGTKVEIKRTVAAPSVFIFPPSDEQLKSGTASVVCLLNNFYPREAKVQWKVDNALQSGNSQESVTEQDSKDSTYSLSSTLTLSKADYEKHKVYACEVTHQGLSSPVTKSFNRGEC	6	0.23	0.00011	450000	1.4	0.00086	620000
